Test results: PubChem BioAssay AID2675 (National Center for Advancing Translational Sciences (NCATS), 2010)
Hit rate of the full screen: of about 280,000 compounds, about 100 (0.036%) were called active. The inconclusive results got no clear call from the source; some entries with a clear call stand among them for comparison. The call rests on the fitted dose curve; in most records, active means well fitted inhibition curve with a large enough effect in the signal ratio, with a control signal flat (not every such curve was filed as active); inconclusive means small, poorly fitted or top-dose-only effect, or effect the other way, or a change in a side signal; inactive means no such curve, though single readings can be large or run the other way; the % refers to the signal ratio. A potency beside an inconclusive call is a rough fit, not a confirmed value. “Side channel” marks fits to a control or component signal instead of the main read-out.

target: Muscleblind-like protein 1 (Homo sapiens) (UniProt Q9NR56); assay: qHTS Assay for Inhibitors of MBNL1-poly(CUG) RNA binding; details: TR-FRET MBNL1-His/biotin-(CUG)12 binding, 665/545 ratio; series mostly up to 57.5 µM
Summary of the method: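 His-tagged MBNL1 binding to biotinylated (CUG)12 RNA was measured by TR-FRET using terbium anti-His antibody (0.055 ng/ul final) and streptavidin-XL665 (5 nM final). Compounds were titrated 92 nM to 58 uM; 60 min at room temperature.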
Potency means the concentration at half of the fitted maximal effect; tags describe the fitted curve by direction and shape or compound fluorescence and quenching.

UniProt Q9NR56, sequence (Q9NR56 whole entry, looked up): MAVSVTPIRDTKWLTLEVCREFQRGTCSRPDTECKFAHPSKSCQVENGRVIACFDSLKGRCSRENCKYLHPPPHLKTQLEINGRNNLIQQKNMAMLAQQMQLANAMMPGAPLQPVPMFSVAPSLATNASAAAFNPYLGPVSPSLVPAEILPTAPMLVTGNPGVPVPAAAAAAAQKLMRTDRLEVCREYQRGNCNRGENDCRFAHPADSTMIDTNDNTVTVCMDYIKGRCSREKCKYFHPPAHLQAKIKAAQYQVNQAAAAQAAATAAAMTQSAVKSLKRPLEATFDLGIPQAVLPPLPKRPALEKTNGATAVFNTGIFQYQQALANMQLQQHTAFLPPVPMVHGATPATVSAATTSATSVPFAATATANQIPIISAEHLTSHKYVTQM

Row | Structure (SMILES) | Potency
1 | CCONC(=O)Nc1ccccc1[N+](=O)[O-] | inconclusive: 8.91 µM [quencher, side channel, partial curve]
2 | COC(=O)c1ccc(C2N=C(c3cccs3)CC(c3ccccc3O)N2)cc1 (configuration not stated) | inactive
3 | O=[N+]([O-])c1cccc(-c2nnc(-c3ccccc3F)o2)c1 | inconclusive: 3.16 µM [quencher, side channel, full curve]
4 | Cc1ccn2cc(CCNS(=O)(=O)c3ccc([N+](=O)[O-])cc3)nc2c1 | inconclusive: 12.6 µM [quencher, side channel, partial curve]
5 | Cc1ccc(S(=O)(=O)CC(=O)Nc2ccccn2)cc1 | inactive
6 | Cc1cc(C)c2nc(N3CCCN(C(=O)c4ccco4)CC3)c(C#N)cc2c1 | inconclusive: 15.8 µM [quencher, side channel, partial curve]
7 | Cc1cccc2cc3c(N)c(C#N)sc3nc12 | inconclusive: 25.1 µM [quencher, side channel, single point]
8 | CC(=O)C1=C(O)C(=O)N(c2ccc(S(=O)(=O)Nc3nccs3)cc2)C1c1ccc(F)cc1 (configuration not stated) | inconclusive: 31.6 µM [quencher, side channel, single point]
9 | O=[N+]([O-])c1nn(-c2ccc(Cl)cc2)n(O)c1=NCc1ccccc1 | inconclusive: 3.98 µM [quencher, side channel, partial curve]
10 | CC12CCC(O)CC1=CCC1C2CCC2(C)C1CCC21CCC(=O)O1 (configuration not stated) | inactive
11 | CCn1c(=O)c([N+](=O)[O-])c(Cl)c2ccccc21 | inactive
12 | O=S(=O)(NCc1cccnc1)c1cccc2nsnc12 | inconclusive: 15.8 µM [quencher, side channel, partial curve]
13 | CCCS(=O)(=O)N1CCC(C(=O)NC2CCCC(C)C2C)CC1 (configuration not stated) | inconclusive: 14.1 µM [fluorescent, side channel, partial curve]
14 | CCOC(=O)C1=C(c2ccccc2)OC(N)=C(C#N)C1c1cccs1 (configuration not stated) | inconclusive: 11.2 µM [quencher, side channel, partial curve]
15 | COc1ccc(NC(=O)c2ccc(C#CC(C)(C)O)cc2)cc1 | inconclusive: 0.282 µM [fluorescent, side channel, full curve]
16 | COc1ccc(/C=N/NC(=O)c2c([N+](=O)[O-])c(C)nn2C)cc1 | inconclusive: 35.5 µM [quencher, side channel, partial curve, poor fit]
17 | O=C(Cc1ccccc1)N/N=C/c1ccc(-c2ccc([N+](=O)[O-])cc2)o1 | inconclusive: 3.55 µM [quencher, side channel, full curve]
